This note sets out measurements from ChEMBL document CHEMBL4888484, “Replenishing the malaria drug discovery pipeline: Screening and hit evaluation of the MMV Hit Generation Library 1 (HGL1) against asexual blood stage Plasmodium falciparum ,using a nano luciferase reporter read-out” (2022).

SMILES strings stand for the structures. The campaign covered roughly 150,000 compounds. About 540 (0.36%) showed an effect of 50% or more. This is one part of the list.

This test has as its system Plasmodium falciparum. Description: Primary screen in NF54 nanoGlo assay, in single point, at 2uM, 72h; a lower Z score goes with more inhibition. Format: functional, Erythrocyte. The note with it: timepoint 72 hour.
On to `Cc1ccc(-n2ccnc2)c(C(=O)N2CC[C@H](C(=O)O)C2)c1`, for which the % Inhibition (in general, the relative decrease from the control value, in per cent) is 4% and the Z score is -0.48.
Turning to `O=C(c1cccc(S(=O)(=O)N2CCCC2)c1)N1CCC[C@H]1c1nnc2ccccn12`, the “% Inhibition” value was -3% and the Z score came to 0.48.
Turning to `Cc1c(CN(C)[C@H]2CCN(C)C2)oc2ccccc12`, the “% Inhibition” value is recorded as -13% and the Z score is reported as 1.22.
Turning to `CCOc1ccccc1NC(=O)N1CCN(c2ccc(-c3noc(C4CCC4)n3)cc2)CC1`, the “% Inhibition” value is 0% and the Z score came to 0.08.
As to `O=C(Nc1ccccc1)c1ccc(N2C3CCC2COC3)nn1`, the “% Inhibition” value is -5% and the Z score is on record as 0.97.
Take `CC(=O)c1cnc(N2CCC3(CC2)COC(=O)O3)nc1C`: the “% Inhibition” value is reported as -9% and the Z score came out at 0.84.
For `c1ccc(-c2ncsc2CNc2ncnc3c2CCNCC3)cc1` the same measures were 2% and -0.41.
On to `CC(C)CCN1C(=O)CC[C@@H]2CN(C(=O)c3ncoc3C3CC3)CC[C@@H]21`, for which the “% Inhibition” value is reported as -3% and the Z score is 0.43.
In the same order, the values of `CC1CC(C(=O)NCc2nnc(C3CCOC3)[nH]2)CC(C)(C)C1` (stereo unspecified) are -8% and 1.54.
With `CCOC(=O)c1ccccc1N(CC)C(=O)c1cnc(C)cn1`, the “% Inhibition” value was 1% and the Z score is given as -0.09.
For the molecule `CC(=O)NCC(=O)NCc1nc(C(=O)NCc2ccc(F)cc2)no1`, the “% Inhibition” value was -14% and the Z score is 1.49.
With `CCCOc1ccc(-c2cccc(C(=O)N3CCCO[C@@H](C)C3)c2)cc1CO`, the “% Inhibition” value was determined as 0% and the Z score is -0.02.
In the case of `CCN1CCN(C(=O)CN2CCCc3nc(-c4ccccc4)ncc3C2=O)CC1`, the “% Inhibition” value is -6% and the Z score amounted to 0.87.
With `Cn1c(-c2ccc(Cl)cc2)nnc1N1CCC[C@H](CCO)C1`, the “% Inhibition” value is -10% and the Z score is 1.29.
For the molecule `Cc1cc(C(F)(F)F)nc(N2C[C@H](F)C[C@H]2C(N)=O)n1`, the “% Inhibition” value stood at 13% and the Z score is -1.53.
Turning to `Cc1cccc(C(=O)N2CCC[C@H](CN3CCC(C)CC3)CC2)c1`, the “% Inhibition” value is reported as 1% and the Z score is on record as -0.23.
For `C[C@H]1OCC[C@H]1n1nnnc1N1CCC2(CCCCC2)C1`, the “% Inhibition” value was -2% and the Z score is listed as 0.31.
As for `CC(C)C1OCCC1CNc1ccccc1S(C)(=O)=O` (stereo unspecified), the “% Inhibition” value worked out at 3% and the Z score was -0.5.
As to `O=C1CC2(CN(C(=O)C(F)(F)c3ccccc3F)C2)NCCN1`, the “% Inhibition” value is 6% and the Z score was -0.75.
In the same order, the values of `CCOc1nc2ccccc2nc1C(=O)N1CCN(c2cccc(Cl)c2)CC1` are -11% and 1.6.
Take `c1coc(CCCN2CCN(c3ccnc4nncn34)CC2)c1`: the “% Inhibition” value is given as -7% and the Z score is 1.3.
`Cc1noc([C@@]23CN(C(=O)CCO)C[C@@H]2CCN(C(=O)c2cccnc2)C3)n1`: the “% Inhibition” value is -1% and the Z score turned out to be 0.09.
As for `Cn1ncnc1CCN1CC(c2ccccc2)(c2ccccc2)CCC1=O`, the “% Inhibition” value is 1% and the Z score is -0.16.
In the same order, the values of `C[C@H](Oc1cc2c(nn1)CCCC2)C1CC1` are -5% and 0.58.
On to `COCC1(C(=O)N2CCN(c3cncc4ccccc34)CC2)CCC1`, for which the “% Inhibition” value turned out to be 44% and the Z score was -6.02.
Regarding `CC(=O)N1CCc2cc(Br)c(S(=O)(=O)N3CC(=O)N(CCc4ccccc4)C(=O)C3)cc21`, the “% Inhibition” value is reported as -4% and the Z score stood at 0.43.
Take `CCO[C@H]1CN(C(=O)c2ncccc2O)C[C@@H]1O`: the “% Inhibition” value is recorded as -6% and the Z score is reported as 0.6.
For `CC(C)C[C@H](NC(=O)c1ccncc1F)C(=O)Nc1cc[nH]n1` the same measures were -14% and 1.98.
For `COc1ccc(C(=O)N2CC(=O)N3C[C@@H](OC)C[C@H]3C2)cc1F`, the “% Inhibition” value is -7% and the Z score is on record as 1.
Turning to `CCc1nc(N2CCCN(S(=O)(=O)N3CCOCC3)CC2)ncc1C`, the “% Inhibition” value is given as -5% and the Z score was 0.92.
Take `COc1ccc(NC(=O)[C@@H](c2ccc(C)cc2)N(Cc2ccco2)C(=O)c2cnccn2)cc1`: the “% Inhibition” value was found to be 0% and the Z score is given as -0.01.
As for `CC1(C)CC2CC(C)(CN2c2nc(-c3ccccc3)nc3ccccc23)C1` (stereo unspecified), the “% Inhibition” value was 4% and the Z score is listed as -0.53.
Turning to `O=C1COc2c(cccc2NC(=O)c2ccccc2)N1`, the “% Inhibition” value is -10% and the Z score was 1.28.
In the same order, the values of `Cc1cc(C#N)cc(N(C2CC2)S(=O)(=O)c2ccc(C#N)nc2)n1` are -3% and 0.44.
With `CC(C)c1ncc(CN(C)S(=O)(=O)N(C)C2CCCCC2)cn1`, the “% Inhibition” value is on record as -9% and the Z score is listed as 1.04.
On to `COCCNc1ncccc1-c1noc([C@@H]2CCCN2Cc2ccccc2OC)n1`, for which the “% Inhibition” value worked out at 30% and the Z score was -3.38.
For `CC1CC2CCCCC2N1C(=O)C1CCNC(=O)C1` (stereo unspecified), the “% Inhibition” value is 31% and the Z score is -3.45.
Take `CC(C)(Nc1ccc2c(c1)OCCO2)c1nnnn1-c1ccc(Cl)cc1`: the “% Inhibition” value was -11% and the Z score is listed as 1.52.
For `CCN1CCN(c2ccc(S(=O)(=O)N3CCOCC3)cc2N)CC1`, the “% Inhibition” value is recorded as 1% and the Z score is -0.24.
Regarding `CCC1=C(c2ccc(C)cc2)S(=O)(=O)N=C1N1CCC(C(=O)NC2CCC(C)CC2)CC1` (stereo unspecified), the “% Inhibition” value is -12% and the Z score is reported as 1.49.
On to `CCCc1ncncc1C(=O)N(C)Cc1c(C)nn(C(C)C)c1C`, for which the “% Inhibition” value is given as -1% and the Z score is 0.13.
On to `Cc1nc(CN2CCC3(CC2)[C@H](O)C[C@@H]3OCCO)sc1C`, for which the “% Inhibition” value came to 1% and the Z score is given as -0.25.
As for `CC[C@H]1c2cccn2CCN1C(=O)c1cc(C#N)c[nH]1`, the “% Inhibition” value came out at 5% and the Z score is on record as -0.82.
As to `Cc1cc(Cl)c2ccccc2c1NC(=O)NCc1nnn(C(C)(C)C)n1`, the “% Inhibition” value is listed as 4% and the Z score is reported as -0.84.
Turning to `CCCc1cc(C(=O)N2C[C@@H]3OC(=O)N(CCCN4CCOCC4)[C@@H]3C2)[nH]n1`, the “% Inhibition” value came to 3% and the Z score is listed as -0.61.
In the case of `CC(C)ONC(=O)CCc1cccc(O)c1`, the “% Inhibition” value is on record as -11% and the Z score amounted to 1.21.
For `CC(C)c1nc(CCNC(=O)CCCc2cn[nH]c2)no1`, the “% Inhibition” value worked out at 0% and the Z score was 0.
Regarding `Cc1cc(C)c(-n2cccn2)c(CN2CCN3CCC[C@H]3C2)c1`, the “% Inhibition” value is -4% and the Z score is reported as 0.51.
For `COCCN(CC(=O)N[C@H]1CCCCNC1=O)C(=O)OC(C)(C)C`, the “% Inhibition” value came to 4% and the Z score is -0.65.
In the case of `Cc1cnc2cc(C(=O)N[C@@H](C)C3CCOCC3)ccn12`, the “% Inhibition” value is -10% and the Z score was determined as 1.39.
Regarding `CC1CC(C(N)=O)c2ccccc2N1Cc1cc(F)cc2c1OCOC2` (stereo unspecified), the “% Inhibition” value was -5% and the Z score was found to be 0.86.
On to `CC(=O)Nc1nc2ccc(NC(=O)c3cc(-c4ccccc4)[nH]n3)cc2s1`, for which the “% Inhibition” value is reported as -2% and the Z score was 0.37.
As for `CCOC(=O)N1CCN([C@H]2CCCN(C(=O)C(=O)CC(C)C)C2)CC1`, the “% Inhibition” value is -10% and the Z score was 1.31.
For `NC(=O)c1ccc(/C=C/C2CCCCC2)nc1`, the “% Inhibition” value is -15% and the Z score came to 2.78.
In the case of `COC(=O)N1CCC2(O)CCCCC2[C@@H]1c1ccc(OC)cc1OC` (stereo partly specified), the “% Inhibition” value is -1% and the Z score is reported as 0.13.
Consider `CS(=O)(=O)N1C[C@H]2CN(Cc3cc(C(F)(F)F)ccc3Cl)CC[C@@]2(CO)C1`, for which the “% Inhibition” value is 1% and the Z score is -0.21.
For `Cc1c(CN(C)C(=O)C[C@@H]2C(=O)Nc3c(F)cccc32)cnn1C` the same measures were -1% and 0.22.
Regarding `c1cncc(CNc2ccc3c[nH]nc3c2)c1`, the “% Inhibition” value was -2% and the Z score was 0.29.
As to `CCCc1cc(C(=O)NCc2cccnc2N2CCN(C(C)=O)CC2)no1`, the “% Inhibition” value is listed as -3% and the Z score was found to be 0.31.
In the case of `O=C(O)c1c(S(=O)(=O)NCCOc2ccccc2)sc2c1CCNC2`, the “% Inhibition” value was -4% and the Z score amounted to 0.61.
With `C[C@H](OC(=O)C1(Cc2nc3ccccc3s2)CCCC1)C(=O)N1CCCC1`, the “% Inhibition” value is 26% and the Z score is recorded as -3.33.
For `COC[C@@](C)(O)CNC(=O)C(=O)NCCc1ccccc1` the same measures were -5% and 0.8.
`C[C@@H](C(=O)N1CCCC1)S(=O)(=O)c1cccc(Cl)c1`: the “% Inhibition” value is reported as 0% and the Z score was -0.07.
For the molecule `COc1ccc(OC)c(S(=O)(=O)N[C@H]2CCc3nn(CC4CC4)c(=O)n3CC2)c1`, the “% Inhibition” value came to 29% and the Z score was -3.91.
In the case of `N#Cc1nccnc1NC1c2ccccc2CC1O` (stereo unspecified), the “% Inhibition” value is recorded as -5% and the Z score is on record as 0.66.
As to `CC1CN(C(=O)OC(C)(C)C)CC(C)N1C(=O)C1CCOC1` (stereo unspecified), the “% Inhibition” value is recorded as -8% and the Z score stood at 1.52.
As for `CC(C)c1oncc1NC(=O)CS(=O)(=O)C(C)(C)C`, the “% Inhibition” value is recorded as -14% and the Z score was found to be 1.46.
In the case of `Cc1cnc(C(=O)N[C@@H](C)Cn2ccnc2)cn1`, the “% Inhibition” value is reported as -6% and the Z score stood at 1.06.
As for `CO[C@H]1CCN(c2ccc(C(=O)NCCC3=CCCCC3)cc2)C1`, the “% Inhibition” value was -7% and the Z score is 1.33.
Consider `CC(C)C[C@H](NS(=O)(=O)c1cccc(C#N)c1)C(=O)N(C)C`, for which the “% Inhibition” value is recorded as 3% and the Z score is -0.41.
In the case of `Cn1c(CO)nnc1C1CCN(C(=O)[C@H]2CCOc3ccccc3C2)CC1`, the “% Inhibition” value is listed as -9% and the Z score is recorded as 0.92.
As to `O=C(Nc1n[nH]c(C2CC2)n1)c1cc(-c2ccccc2)n[nH]1`, the “% Inhibition” value is reported as -4% and the Z score amounted to 0.55.
On to `Cc1cccc(CCC(=O)N2CC3CC2CO3)c1` (stereo unspecified), for which the “% Inhibition” value is -23% and the Z score is 2.66.
`CCCCNC(=O)N1CC2(CC(=O)Nc3nccn32)C1`: the “% Inhibition” value was determined as 14% and the Z score is on record as -2.6.
For the molecule `COc1cc(CN2CC(O)C2)ccc1OC[C@@H](O)CN1CCCCCC1`, the “% Inhibition” value is reported as -1% and the Z score came out at 0.2.
Regarding `C=Cc1ccc(-c2ccc(C(=O)NC(C)(C)CCC(=O)NC)cc2)nc1`, the “% Inhibition” value is -2% and the Z score is listed as 0.34.
On to `CN(C)C(=O)[C@@]12CN(C(=O)CCc3ccccc3)C[C@@H]1CN(C(=O)c1ccncc1)C2`, for which the “% Inhibition” value is -16% and the Z score is 2.19.
For `COC(=O)c1ccc(Oc2cccc(NC(=O)c3ccccc3F)c2)cc1C(=O)OC` the same measures were 0% and -0.06.
Turning to `CC(C)(C)n1c(=O)c2ccc(F)cc2n1CC(=O)Nc1ccc(Cl)cc1`, the “% Inhibition” value was -3% and the Z score was found to be 0.4.
For the molecule `Cc1ccc(NC(=O)N2CCC(C(=O)C3CC3)CC2)c(C)c1`, the “% Inhibition” value was -2% and the Z score was 0.28.
`CC[C@H](NCc1cc(C)c(OC(C)=O)c(C)c1)c1nc(C)no1`: the “% Inhibition” value was -3% and the Z score was 0.41.
As for `O=C1N[C@H]2C[C@@H](C(=O)NC[C@H]3O[C@H](CCOc4cc(-c5ccccc5)ccc41)CC[C@@H]3O)N(C1CCOCC1)C2`, the “% Inhibition” value came out at 35% and the Z score was -3.98.
Take `COc1ccc(-c2noc(-c3nnn4c3CO[C@H](c3ccc(C)cc3C)C4)n2)cc1`: the “% Inhibition” value is reported as -16% and the Z score came out at 1.51.
